Measurements as given in ChEMBL document CHEMBL1157539, “Thousands of chemical starting points for antimalarial lead identification” (Nature, 2010).
Whole data set: some 13,000 compounds, median “IFI” near 4, cut for the highest 2% near 17. The list shows a part of the results.

Test: GSK_TCMDC: Inhibition Frequency Index (IFI). The number of non-kinase HTS assays where a compound showed > 50 % inhibition, expressed as a percentage of the number of such assays in which the compound was tested (-0 is zero)
Assay type: functional
In the case of `CCCSc1nc2c(c(=O)n1CCc1ccccc1)C1(CCCC1)Cc1ccccc1-2`, the IFI was -0%. In the case of `CCc1cccc2c(C#N)cn(CC(=O)Nc3ccc(OC)cc3)c12`, the IFI was 0.98%. With `CC(=O)Nc1ccc(CN2CCC(NC(=O)c3ccc(-c4cccc(Cl)c4)s3)CC2)cc1` the IFI was 10.7%. `COc1ccc(-c2ccccc2CNc2nc(NCCc3ccc(O)cc3)nc(N3CCNCC3)n2)cc1` showed an IFI of 13.4%. Work on `COc1cc(Cc2cnc(N)nc2N)cc(OCCCCC#N)c1OC` yielded an IFI of 0.71%. For `COc1cc(NC(=O)c2ccc(-c3ccccc3)cc2)ccc1OCCCN1CCC(c2ccccc2)CC1`, the IFI was 2.21%. `O=C(Nc1cccc(N2CCC(NCc3cnn(-c4cccc(F)c4)c3)CC2)c1)c1ccncc1` showed an IFI of -0%. `FC(F)(F)c1cccc(CNCCCCCNCc2ccc(Cl)cc2)c1` showed an IFI of 1.42%. In the case of `COc1cc(Cc2cnc(N)nc2N)ccc1OCC(=O)Nc1ccc(C)cc1`, the IFI was 1.83%. `O=C(Nc1ccsc1)Nc1cccc(-c2cccc(-c3nc4cc(F)ccc4[nH]3)c2)c1` gave an IFI of 4.04%. Work on `CN1CCN(Cc2cc3cc(NC(=O)/C=C/c4cccc(Cl)c4)ccc3s2)CC1` yielded an IFI of 11.2%. For `COC(=O)c1cccc(CNCc2cccc(-c3cccc(-c4nc5cccc(C)c5[nH]4)c3)c2)c1`, the IFI was 4.9%. Work on `Cc1c(C)n(C2CCCC2)c2ncnc(OC3CCN(CC(=O)NCC4CC4)CC3)c12` yielded an IFI of 8.7%. In the case of `COc1ccc(-c2cc(-c3nc4cc(C(=O)N5CCOCC5)ccc4[nH]3)c(=O)n(C)c2)cc1OC`, the IFI was -0%. `CCOC(=O)c1ccc(NC(=O)Nc2cccc(-c3cccc(-c4nc5cc(F)ccc5[nH]4)c3)c2)cc1` gave an IFI of 10.9%. Work on `O=C(N[C@@H](CC1CCCCC1)C(=O)NCCN1CCCC1)c1ccc(O)c(-c2ccc(Cl)c(Cl)c2)c1` yielded an IFI of 4.29%. `Cc1ccc(CCOCCCCCNCC(O)c2cc(Cl)c(N)c(Cl)c2)cc1` (stereo not given) showed an IFI of 1.48%. With `FC(F)(F)CNc1nc(Nc2ccc3ncccc3c2)nc2[nH]ccc12` the IFI was -0%. Work on `COc1cc(NC(=O)/C=C/c2ccccc2OC(F)(F)F)cc(OCCN2CCCCC2)c1` yielded an IFI of 3.65%. Compound `O=C(Nc1ccc(-c2nc3ccccc3[nH]2)cc1)c1cccc(S(=O)(=O)N2CCCC2)c1` has an IFI of 2.86%. With `CCOc1ccc2nc(NC(=O)c3csnn3)sc2c1` the IFI was 1.56%. Work on `O=C(Nc1cccc(CN2CCCN(Cc3cccc(O)c3)CC2)c1)c1ccc(Cl)c(Cl)c1` yielded an IFI of 5.37%. For `CN(Cc1cccc(C#N)c1)C1CCN(c2cc(NC(=O)c3ccc(F)cc3)ccn2)CC1`, the IFI was -0%. With `Cc1ccc(F)c(NC(=O)c2c(-c3c(F)cccc3Cl)noc2C)c1` the IFI was 2.04%. In the case of `Cn1cncc1C(=O)Nc1cccc(-c2cccc(-c3nc4cc(C(F)(F)F)ccc4[nH]3)c2)c1`, the IFI was 3.6%.
